Test results taken from patent US20240287089A1, “Preparation and Uses of 7-Azaindenoisoquinolines” (Purdue Research Foundation, priority 0001, published 2024).
Read-outs that look alike come from different tables or passages of the source.

What was measured:
[1] = mouse, 1 μM
[2] = in vivo, iv, 20 mg/kg
[3] = Pharmacokinetics IV and PO in male CD1 mice; conditions: PO 10 mg/kg, male CD1 mice
[4] = male, mouse, microsomes, 1 μM

## CCNCCCn1c2c(c3cc(OC)c(OC)cc3c1=O)C(=O)c1cc3c(nc1-2)OCO3 [G104, 6-(3-(Ethylamino)propyl)-2,3-dimethoxy-5H-[1,3]dioxolo[4″,5″:5′,6′]pyrido [3′,2′:4,5]cyclopenta[1,2-c]isoquinoline-5,12(6H)-dione]
[1]
  % Stability at 6 hrs: 86.57%
[2]; male, CD1, mouse
  AUCInf: 2316 ng·h/mL
  AUClast: 2160 ng·h/mL
  C0: 1164 ng/mL
  Cl_obs: 144 mL/min/kg
  T1/2: 7.06 h
[2]; male, CD1, mouse, 0.25 h
  Brain/Plasma Conc Ratio: 1.88
[2]; male, CD1, mouse, 0.5 h
  Brain/Plasma Conc Ratio: 2.40
[2]; male, CD1, mouse, 1 h
  Brain/Plasma Conc Ratio: 3.81
[2]; male, CD1, mouse, 2 h
  Brain/Plasma Conc Ratio: 5.65
[2]; male, CD1, mouse, 4 h
  Brain/Plasma Conc Ratio: 3.58
[2]; male, CD1, mouse, 8 h
  Brain/Plasma Conc Ratio: 6.22
[2]; male, CD1, mouse, 24 h
  Brain/Plasma Conc Ratio: 16.4
[2]; mouse
  AUClast: 10293 ng·h/g
[3]
  AUClast: 202 ng·h/mL
  Cmax: 16.2 ng/mL
[4]
  Scaled-up CLint: 38.38 mL/min/kg
  T1/2: 2.6332 h
  in vitro CLint: 8.77 μL/min/mg protein
